Here are results for 43 compounds from ChEMBL document CHEMBL4888484, “Replenishing the malaria drug discovery pipeline: Screening and hit evaluation of the MMV Hit Generation Library 1 (HGL1) against asexual blood stage Plasmodium falciparum ,using a nano luciferase reporter read-out” (2022).

For orientation: % Inhibition means the drop in the measured response relative to a control, in per cent.

The campaign covered roughly 150,000 compounds. About 540 (0.36%) showed an effect of 50% or more. This is one part of the list.

The subject of this assay is Plasmodium falciparum. Put plainly: Primary screen in NF54 nanoGlo assay, in single point, at 2uM, 72h; a lower Z score goes with more inhibition. The conditions noted are these: timepoint 72 hour. Format: functional, Erythrocyte.
Regarding `Cc1cc(C(=O)N2CC[S@@+]([O-])C(C)(C)C2)oc1C`, the “% Inhibition” value is given as -3% and the Z score is on record as 0.46.

For the compound `COc1ccc(Nc2nc(N3CCOCC3)nc(N3CCC(C)CC3)n2)cc1`, the “% Inhibition” value came out at 16% and the Z score is -2.17.

Regarding `CCOc1ccc(Cl)cc1CN(C)c1cc(C2CC(O)C2)nc(N)n1` (stereo unspecified), the “% Inhibition” value was -11% and the Z score came out at 1.46.

For `COc1cc(-c2ccc(-c3cn[nH]c3)cc2)ccc1O`, the “% Inhibition” value is given as -8% and the Z score was determined as 1.16.

As for `CCn1cc(S(=O)(=O)N(C)Cc2noc(C3CC3)n2)cn1`, the “% Inhibition” value was -9% and the Z score amounted to 1.01.

Regarding `Cc1cccc(CN2CC(N(Cc3cccnc3)S(C)(=O)=O)C2)c1`, the “% Inhibition” value is listed as -1% and the Z score stood at 0.12.

As to `CCOCCOc1nc(-c2ccc3c(c2)OCO3)n(-c2ccc(NC(=O)c3c(OC)cccc3OC)cc2)n1`, the “% Inhibition” value turned out to be 4% and the Z score is reported as -0.63.

`CN(C)C(=O)c1ccccc1CCCOCc1ccccc1`: the “% Inhibition” value is -1% and the Z score worked out at 0.2.

Regarding `O=C(c1nnn2c1c(=O)[nH]c1cc(F)ccc12)N1CCCCCC1`, the “% Inhibition” value was found to be 0% and the Z score was -0.07.

For `CC1CCC(N2CC(=O)N(CCN3CCOCC3)[C@@H](c3cccnc3)C2=O)CC1` (stereo partly specified), the “% Inhibition” value stood at 33% and the Z score is listed as -3.78.

As for `CC(=O)c1ccc2c(c1)N(Cc1ccc(C(=O)NCc3ccccc3)o1)C(=O)CO2`, the “% Inhibition” value is recorded as 0% and the Z score is recorded as -0.02.

Take `C[C@@H](C(=O)NCc1ccc2c(c1)OCO2)n1cccn1`: the “% Inhibition” value is -5% and the Z score worked out at 0.86.

As to `CC(C)C(=O)N1CCC[C@H](NS(=O)(=O)c2ccnn2C(C)C)C1`, the “% Inhibition” value is recorded as -2% and the Z score came out at 0.31.

As to `COc1cccc(Cn2ncnc2[C@H](C)n2cc(Cl)cn2)c1`, the “% Inhibition” value was -2% and the Z score came out at 0.35.

For `Nc1ccc2c(c1)S(=O)(=O)c1cc(N)ccc1C2`, the “% Inhibition” value was -2% and the Z score was 0.25.

As for `CC(C(=O)N1CCCc2ccccc21)N1CCCC(c2nncn2C2CC2)C1` (stereo unspecified), the “% Inhibition” value is -7% and the Z score is 0.83.

Take `Cc1nnc(-c2cc(C(C)C)n(-c3ccc(C(=O)NC4Cc5ccccc5C4)cc3)n2)o1`: the “% Inhibition” value is given as -4% and the Z score is given as 0.56.

With `CS(=O)(=O)CCn1cccc(NC(=O)C2CC3CCC2C3)c1=O` (stereo unspecified), the “% Inhibition” value amounted to 5% and the Z score was -0.72.

For `CC(OC(=O)c1ccc(N2CCCC2)nc1)C1CCOC1` (stereo unspecified), the “% Inhibition” value is -7% and the Z score was found to be 0.92.

Regarding `CC1CCN([C@@H]2[C@H](O)[C@H](CO)O[C@@H]2CNS(=O)(=O)c2ccccc2)CC1`, the “% Inhibition” value is 26% and the Z score is -2.92.

For the compound `CN(CC#N)CC(=O)N(C)Cc1ccc(F)cc1`, the “% Inhibition” value is -7% and the Z score is reported as 0.67.

`CCCCC1CC1C(=O)NC1Cc2ccccc2C1` (stereo unspecified): the “% Inhibition” value was -9% and the Z score stood at 0.85.

Take `Cn1ccc(C(=O)N2CC=CC23CCCCC3)n1`: the “% Inhibition” value is reported as -10% and the Z score is 1.12.

For the compound `Cc1ccnc([C@@H](NC(=O)c2ncoc2C)C2CC2)c1`, the “% Inhibition” value is on record as -4% and the Z score turned out to be 0.77.

Take `CC1Cc2ccc(F)cc2C1NCCc1ccc(S(N)(=O)=O)cc1` (stereo unspecified): the “% Inhibition” value is recorded as -2% and the Z score turned out to be 0.28.

For the compound `C#CCN(C)CC[C@@H]1CC[C@H](O)[C@@H](C(=O)NCc2ccc(OC)cc2)O1`, the “% Inhibition” value came to 7% and the Z score was -0.81.

With `COc1cc2c(N3CCCC4C(NC(=O)C(F)F)C(C)(C)C43)ncnc2cc1F` (stereo unspecified), the “% Inhibition” value is -2% and the Z score is given as 0.37.

In the case of `O=C1COc2ccc(Cl)cc2CN1C1CCCCCC1`, the “% Inhibition” value is given as 30% and the Z score is -3.35.

In the case of `CC(C)(C)OC(=O)N1CC(OC(=O)Nc2cccc(F)c2)C1`, the “% Inhibition” value is -4% and the Z score is listed as 0.52.

For the compound `Cc1nc2c(s1)CCC[C@@H]2Nc1ncnc2c1CCNCC2`, the “% Inhibition” value is reported as -1% and the Z score amounted to 0.23.

As to `COc1nn(C)c(C)c1NC(=O)N1CCN(c2cc(C)nc(N)n2)CC1`, the “% Inhibition” value is on record as -5% and the Z score was 0.85.

Turning to `O=C(c1ccc(F)cc1)N1Cc2cccnc2C1`, the “% Inhibition” value is recorded as -13% and the Z score was 1.54.

Consider `Cc1cc(C)c(C(=O)N2CCC[C@H](C(=O)NCc3ccccc3C)C2)[nH]1`, for which the “% Inhibition” value was found to be 7% and the Z score is -0.97.

For `NC(=O)[C@H]1CCCN(C(=O)c2coc(CN3CCN(c4ccccc4F)CC3)n2)C1`, the “% Inhibition” value was -11% and the Z score turned out to be 1.52.

`Cc1nn(C)c2c(-c3ccccc3)c(O)ccc12`: the “% Inhibition” value was 1% and the Z score is recorded as -0.06.

For the compound `CC(C)(CNC(=O)NCCOc1ccc(F)c(F)c1)C(N)=O`, the “% Inhibition” value is recorded as 3% and the Z score was -0.33.

In the case of `c1nc2n(n1)C[C@@H](NCc1noc(C3CC3)n1)CC2`, the “% Inhibition” value is reported as -14% and the Z score is 1.62.

As for `COc1ccnc(N2CCN(c3ccc(C(F)(F)F)nn3)CC2)c1`, the “% Inhibition” value is recorded as -12% and the Z score came to 2.28.

For `COc1ccc2c(c1)N1CCN(c3ccccc3)CC1C(C(=O)N1CCOCC1)C2` (stereo unspecified), the “% Inhibition” value is on record as -7% and the Z score is given as 1.31.

Turning to `Cc1nc(NC(=O)C2(CF)CCC2)nn1C`, the “% Inhibition” value came out at 3% and the Z score is given as -0.42.

On to `COc1ccc(-c2ccc(-c3cnco3)cc2)c(OC)n1`, for which the “% Inhibition” value is -3% and the Z score was found to be 0.49.

Turning to `Cc1ccc(CN2CC(N(CC(C)C)C3CCOCC3)C2)cc1`, the “% Inhibition” value is listed as -10% and the Z score is given as 1.85.

Take `COc1cc2cc(c1)C(=O)NCCCC(=O)N[C@H]1CN(C(=O)CCn3nc(C)c(C)c3C)CC[C@@H]1OCc1cccc(c1)O2`: the “% Inhibition” value is on record as -1% and the Z score is on record as 0.17.
